In PubChem BioAssay AID2147 (National Center for Advancing Translational Sciences (NCATS), 2009):
Out of some 230,000 compounds screened, about 3,600 (1.6%) were called active. The shares of active, inactive and inconclusive entries below differ from those in the screen. Calls follow the shape of the dose curve; as a rule, active = well fitted inhibition curve with a large enough effect (not every such curve was filed as active); inconclusive = small, poorly fitted or top-dose-only effect, or another doubt; inactive = no such curve, though single readings can be large or run the other way. Where the call is inconclusive, the potency comes from a doubtful curve fit.

target: Lysine-specific demethylase 4E (Homo sapiens) (UniProt B2RXH2); test: qHTS Assay for Inhibitors of Human Jumonji Domain Containing 2E (JMJD2E); conditions: JMJD2E catalytic domain, FDH-coupled NADH fluorescence (FDH is formaldehyde dehydrogenase); series mostly up to 57.1 µM
Also: nearly all actives have a fitted effect of over 50% in size.
Potency is read from the fitted curve at half-maximal effect; tags tell the direction and shape of the fitted curve.

UniProt B2RXH2, sequence (B2RXH2 whole entry, looked up, the tested form may be a part): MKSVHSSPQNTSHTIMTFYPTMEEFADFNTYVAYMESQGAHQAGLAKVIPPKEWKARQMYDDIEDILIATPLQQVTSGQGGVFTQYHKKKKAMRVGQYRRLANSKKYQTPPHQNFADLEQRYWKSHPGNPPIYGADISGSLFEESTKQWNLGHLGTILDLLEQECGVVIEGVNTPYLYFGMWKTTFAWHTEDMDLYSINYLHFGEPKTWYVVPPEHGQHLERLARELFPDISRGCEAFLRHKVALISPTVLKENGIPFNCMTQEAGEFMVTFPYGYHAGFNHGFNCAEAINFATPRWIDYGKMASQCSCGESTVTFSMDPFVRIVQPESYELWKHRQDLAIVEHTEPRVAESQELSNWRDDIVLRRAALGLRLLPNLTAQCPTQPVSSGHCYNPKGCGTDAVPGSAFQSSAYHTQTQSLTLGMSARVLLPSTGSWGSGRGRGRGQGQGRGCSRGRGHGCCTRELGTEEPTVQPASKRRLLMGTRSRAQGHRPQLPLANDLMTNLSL

**Q.** For `CCCS(=O)(=O)c1c(S(=O)(=O)CCC)c2cc(CC)ccn2c1C(=O)OC`, which Potency is on record?
**A.** inconclusive: 35.5 µM [inhibitor, single point]

**Q.** For `O=C(CC1C(=O)NCCN1Cc1ccc(F)cc1)NCCCn1cccn1` (stereo unspecified), which Potency is on record?
**A.** inconclusive: 35.5 µM [inhibitor, single point]

**Q.** How did the Potency turn out when `COCCCn1c(=O)/c(=C\c2ccccc2OC(F)F)s/c1=C(/C#N)C(=O)N1CCOCC1` was run?
**A.** inactive

**Q.** `CC(=O)c1ccc(NC(=O)COC(=O)c2ccccc2Sc2ccccc2C#N)cc1` was tested. Which Potency did it give?
**A.** inconclusive: 39.8 µM [inhibitor, single point]

**Q.** Which Potency does the source give for `COc1ccc(NC(=O)Nc2cccs2)cc1OC` here?
**A.** inconclusive: 14.1 µM [inhibitor, partial curve]

**Q.** With `CCCOC(=O)c1ccc(Oc2coc3c(CN(CC)CC)c(O)ccc3c2=O)cc1` as the molecule, how does the Potency read?
**A.** inconclusive: 28.2 µM [inhibitor, partial curve]

**Q.** For `COc1ccc(-n2c(Cc3cccn3C)nnc2SCC(=O)N2CCCC2)cc1`, which Potency is on record?
**A.** inactive

**Q.** For `COc1cccc(Cn2c(Oc3cccc(C)c3)nc3c2c(=O)n(C)c(=O)n3C)c1`, which Potency is on record?
**A.** inactive

**Q.** Which Potency does the source give for `O=C1NC(=S)S/C1=C\c1ccc(SCc2ccco2)o1` here?
**A.** inconclusive: 15.8 µM [inhibitor, partial curve]

**Q.** `O=S(=O)(c1cccs1)N1CCN(c2ccccn2)CC1` was tested. Which Potency did it give?
**A.** inconclusive: 25.1 µM [inhibitor, single point]

**Q.** For `Cn1cccc1CC(=O)N/N=C/c1cccc2ccccc12`, which Potency is on record?
**A.** inactive

**Q.** `CCC1C(O)=C(c2ccccn2)C(=N)N1c1ccccc1` (stereo unspecified) was tested. Which Potency did it give?
**A.** inconclusive: 25.1 µM [inhibitor, single point]

**Q.** How did the Potency turn out when `COC(=O)CCC(=O)COc1ccc(OC)cc1C#N` was run?
**A.** inactive

**Q.** `COc1c(-c2ccc(O)cc2)oc2cc(O)cc(O)c2c1=O` was tested. Which Potency did it give?
**A.** inconclusive: 39.8 µM [inhibitor, single point]

**Q.** How did the Potency turn out when `CCOC(=O)c1sc2nc3c(SCC(=O)O)cc(C(=O)c4ccccc4O)cn3c(=O)c2c1C` was run?
**A.** inconclusive: 11.2 µM [inhibitor, partial curve]

**Q.** `CC1=C(/C=N/Nc2ccc([N+](=O)[O-])cc2[N+](=O)[O-])C(C)(C)CCC1` was tested. Which Potency did it give?
**A.** inactive

**Q.** With `CCOC(=O)c1c(NC(=O)CN2CCN(C(=O)c3ccco3)CC2)sc(C(N)=O)c1C` as the molecule, how does the Potency read?
**A.** inconclusive: 39.8 µM [inhibitor, single point]

**Q.** How did the Potency turn out when `O=C(N/N=C/c1ccc[nH]1)c1ccccc1[N+](=O)[O-]` was run?
**A.** inactive

**Q.** Which Potency does the source give for `CCN(CC)C(=O)CC(c1ccccc1)c1ccco1` (stereo unspecified) here?
**A.** inactive

**Q.** Which Potency does the source give for `CC(=O)Nc1cc(-c2ccc(Cl)cc2)[nH]n1` here?
**A.** inactive

**Q.** `CCN(Cc1cn2cccnc2n1)C1CCCCC1` was tested. Which Potency did it give?
**A.** inconclusive: 31.6 µM [inhibitor, partial curve]
